From US4230719A, “Novel 2-[4-(3-methyl-2-thienyl)phenyl]propionic acid and pharmaceutically acceptable salt thereof and method for treating symptoms of inflammation and pain” (Toyama Chemical Co., Ltd., priority 1977, dated 1980)

Columns and labels:
Glomerulonephritis = assay: Action on glomerulonephritis in rats; format: in vivo, rat (Wistar strain, male)
Excerpt: (ii) Action on glomerulonephritis in rats
Glomerulonephritis was induced in Wistar strain male rats (each weighing 180 to 200 g) by use of an anti-rat's kidney rabbit serum obtained from the serum of a rabbit sensitized with a homogenate of rat's kidney cortice. To the rat producing stable proteinuria was orally administered the test compound repeatedly at the rate shown in Table 12 for 2 weeks, and the inhibition of uric protein was examined.

[1] = system: prostaglandin biosynthesis (homogenate of guinea pig's lung); assay: Inhibitory action on prostaglandin biosynthesis (TBA method); conditions: read-out: ID50
[2] = system: gastric mucosa and intestine; assay: Test for ulcerogenic action (i), single dose, fasted rats; format: in vivo; conditions: 30 mg/kg p.o.
Experimental: (4) Test for ulcerogenic action
After 18 hours, the rats were killed by suffocation with chloroform and their stomachs were excised. After having been filled with 5 ml of 1% formalin to fix the gastric mucosa, each stomach was incised along the greater curvature to inspect grossly the extent of injury of the gastric mucosa. The extent of injury was scored as follows: 0, no lesion; 1, petechia or erosion; 2, 1-5 small ulcers; 3, many small ulcers; 4, many large ulcers or perforation. The intestinal injury was evaluated based on the incidence of erosion.

[3] = system: gastric mucosa and intestine; assay: Test for ulcerogenic action (ii), three doses, rats on normal meal; format: in vivo, rat (Donryu strain, male); design: scale not given here
Experimental: (ii) In the same manner as in (i), the test compound was orally administered to each Donryu strain male rat (weighing about 180 g; 10 rats per group) which had received normal meal. The second dose was administered after 8 hours and the third dose after 16 hours from the second dose. Five hours after the last administration, the rats were treated in the same manner as in (i). The gastric mucosa injury and the intestinal injury were scored in the same manner as in (i).

uric acid in plasma = assay: Uricosuric action (b), uric acid in plasma of uric acid loaded rats; format: in vivo, rat (Wistar strain, male)
Experimental: (b) After fasting overnight, the test compound was orally administered to a Wistar strain male rat weighing 150 to 200 g. After one hour, the rat was loaded with 100 mg/kg of uric acid by intraperitoneal administration. Thirty minutes thereafter, a blood sample was drawn from the cervical vein and the uric acid concentration in the plasma was determined by use of a kit (Uric acid test Wako) for the uric acid determination.

Row | SMILES | Inhibition of uric protein (Glomerulonephritis; 10 mg/kg p.o./day, 7th day) [%] | Inhibition of uric protein (Glomerulonephritis; 10 mg/kg p.o./day, 14th day) [%] | IC50 [1] [nM] | Intestine erosion incidence [2] | Score, intestine, mean ± S.E. ([3]; 5 mg/kg × 3 p.o.) | Score, stomach, mean ± S.E. ([3]; 5 mg/kg × 3 p.o.) | Score, intestine, mean ± S.E. ([3]; 15 mg/kg × 3 p.o.) | Score, stomach, mean ± S.E. ([3]; 15 mg/kg × 3 p.o.) | Inhibition of uric protein (Glomerulonephritis; 2 mg/kg p.o./day, 7th day) [%] | Inhibition of uric protein (Glomerulonephritis; 2 mg/kg p.o./day, 14th day) [%] | Score, intestine, mean ± S.E. ([3]; 30 mg/kg × 3 p.o.) | Score, stomach, mean ± S.E. ([3]; 30 mg/kg × 3 p.o.) | Uric acid concentration in plasma, mean ± S.E. (uric acid in plasma; 10 mg/kg p.o.) [mg/dL] | Uric acid concentration in plasma, mean ± S.E. (uric acid in plasma; 20 mg/kg p.o.) [mg/dL] | Activity on glomerulonephritis (in words) (Glomerulonephritis; footnote of Table 12, dose not stated)
1 | Cc1ccsc1-c1ccc(C(C)C(=O)O)cc1 (single isomer, unassigned; isomer d) [d-Isomer, d-2-[4-(3-methyl-2-thienyl)phenyl]propionic acid] | 33.4 | 44.1 | 1100 |  |  |  |  |  |  |  |  |  |  |  | 
2 | COc1ccc2c(c1)c(CC(=O)O)c(C)n2C(=O)c1ccc(Cl)cc1 [Indomethacin] |  |  | 5700 | 3/7 | 3.50 ± 0.22 | 1.95 ± 0.22 | 3.90 ± 0.10 | 3.10 ± 0.23 | 14.0 | 8.9 |  |  |  |  | 
3 | Cc1ccsc1-c1ccc(C(C)C(=O)O)cc1 (racemic) [Racemic compound, dl-2-[4-(3-methyl-2-thienyl)phenyl]propionic acid] | 22.9 | 35.0 | 1400 |  | 0.40 ± 0.16 | 0.95 ± 0.22 | 0.50 ± 0.17 | 1.20 ± 0.13 |  |  | 2.90 ± 0.31 | 1.80 ± 0.29 | 5.3 ± 0.26 | 3.4 ± 0.24 | 
4 | O=C(O)Cc1ccccc1Nc1c(Cl)cccc1Cl [Diclofenac sodium] |  |  | 1000 |  | 1.00 ± 0.21 | 0.90 ± 0.22 | 3.30 ± 0.26 | 1.15 ± 0.25 |  |  |  |  |  |  | low activity
